Data taken from PMC4336329 (PLoS ONE, 2015).
In all, about 310,000 compounds went through this assay and about 2,200 (0.71%) showed an effect of 50% or more. The effect is printed as a negative number. The list shows a part of the results.

What follows are molecules tested against human ether-à-go-go-related gene (hERG) potassium channel (human, UniProt Q12809) (assay: primary screen, population patch clamp on CHO cells stably expressing hERG).
Sequence of human ether-à-go-go-related gene (hERG) potassium channel (Q12809 whole entry, looked up): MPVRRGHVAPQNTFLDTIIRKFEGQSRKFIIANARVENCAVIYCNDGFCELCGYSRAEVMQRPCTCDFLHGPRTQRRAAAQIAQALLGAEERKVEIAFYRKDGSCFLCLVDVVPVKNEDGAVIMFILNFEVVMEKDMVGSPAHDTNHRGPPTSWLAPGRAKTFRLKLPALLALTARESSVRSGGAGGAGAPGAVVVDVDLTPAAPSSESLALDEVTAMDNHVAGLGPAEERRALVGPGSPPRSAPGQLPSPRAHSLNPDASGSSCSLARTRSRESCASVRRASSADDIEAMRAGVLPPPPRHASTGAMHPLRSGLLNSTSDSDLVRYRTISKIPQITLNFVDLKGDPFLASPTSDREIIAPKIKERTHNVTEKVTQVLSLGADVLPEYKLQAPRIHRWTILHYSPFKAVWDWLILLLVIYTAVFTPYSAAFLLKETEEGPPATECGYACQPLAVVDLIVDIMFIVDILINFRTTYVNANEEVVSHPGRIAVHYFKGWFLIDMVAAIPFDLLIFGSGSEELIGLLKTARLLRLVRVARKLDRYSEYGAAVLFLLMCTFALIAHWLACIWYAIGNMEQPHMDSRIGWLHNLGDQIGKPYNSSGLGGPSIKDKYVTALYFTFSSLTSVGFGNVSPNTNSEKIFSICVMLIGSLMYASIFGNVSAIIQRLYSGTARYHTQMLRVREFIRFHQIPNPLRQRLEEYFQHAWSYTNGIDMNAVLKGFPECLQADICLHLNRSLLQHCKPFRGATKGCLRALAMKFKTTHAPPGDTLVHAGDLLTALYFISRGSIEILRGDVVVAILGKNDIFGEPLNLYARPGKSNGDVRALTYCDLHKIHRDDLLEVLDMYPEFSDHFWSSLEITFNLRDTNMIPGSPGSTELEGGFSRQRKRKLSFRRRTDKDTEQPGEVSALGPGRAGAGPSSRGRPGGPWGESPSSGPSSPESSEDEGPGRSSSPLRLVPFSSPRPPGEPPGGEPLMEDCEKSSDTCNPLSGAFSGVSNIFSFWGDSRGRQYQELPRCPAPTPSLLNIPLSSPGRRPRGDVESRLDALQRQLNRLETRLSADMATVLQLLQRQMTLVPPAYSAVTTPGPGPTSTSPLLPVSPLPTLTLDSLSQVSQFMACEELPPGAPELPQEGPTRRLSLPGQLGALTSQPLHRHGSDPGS

| Compound | hERG current change (%, negative = inhibition) at 1uM [%] |
| --- | --- |
| Cc1ccccc1CC1(CO)CCCN(C(=O)c2ccccc2Cl)C1 (centres unmarked) | -70.4 |
| CN(C)Cc1nc2c(c(=O)[nH]1)C1(CCCCC1)Cc1ccccc1-2 | 3.54 |
| NC(=NCc1ccco1)NC(=O)c1ccccc1 | 27.5 |
| COCCCNc1nc2c(-c3cccc(C)c3)nnn2c2ccccc12 | 9.07 |
| COc1ccc(S(=O)(=O)CCC(=O)NCc2ccc(C)o2)cc1 | 4.48 |
| O=C(CSc1nnc(-c2cccnc2)n1CCc1ccccc1)N1CCCCC1 | 13.5 |
| O=C(COC(=O)C1=COCCO1)NC(=O)c1ccc(OC(F)F)cc1 | 17.9 |
| CCCn1nnc(NC(=O)c2ccc3c(c2)OCO3)n1 | 7.24 |
| COc1ccc(/C=C2\SC(=S)N(CCC(=O)N(CCO)c3ccccc3)C2=O)cc1OC | 13.1 |
| CC(CC(=O)O)CC(=O)Nc1ccc(S(N)(=O)=O)cc1 (centres unmarked) | 9.04 |
| O=C(NCCc1csc(-c2cccc(F)c2)n1)c1ccco1 | 10.3 |
| CC1CCN(CC(C)OC(=O)c2ccc3c(c2)OCCO3)CC1.Cl (centres unmarked) | 3.75 |
| O=C(CSc1nnc(-c2ccccn2)o1)Nc1ccccc1Cl | 8.15 |
| CCn1cc(C(=O)NCC(OC)OC)c(=O)c2cc(S(=O)(=O)N(C)C3CCCCC3)ccc21 | 9.43 |
| Cc1cc(C)cc(OC2CCCCC2NS(=O)(=O)c2ccccc2)c1 (centres unmarked) | 2.99 |
| O=C(Nc1nnc(-c2ccc(Cl)s2)o1)C1CC1 | 12.6 |
| Cc1nnsc1C(=O)Nc1ccc(S(=O)(=O)N2CCCCC2)cc1 | 17.9 |
| CCc1nc2c(sc3nc4c(cc32)COC(C)(C)C4)c(=O)n1CCN(CC)CC | 5.26 |
| COc1cccc(C(=O)N2CCN(C3CCCCC3)CC2)c1.O=C(O)C(=O)O | 6.64 |
| Cc1cc(OCC(=O)Nc2cc(-c3nn4c(C)nnc4s3)ccc2C)ccc1Cl | 7.93 |
| CCOC(=O)c1cnc2ccc(C)cc2c1N(C)Cc1ccccc1 | 4.62 |
| CCN1CCc2ccccc2C1 | 13.8 |
| O=C(CCC1COc2ccccc2O1)N1CCCC1 (centres unmarked) | 1.96 |
| C[C@H](C(=O)CC(=O)OC(C)(C)C)[C@H](O)c1ccccc1 | -14.6 |
| O=C(C1CCCN(S(=O)(=O)c2cccs2)C1)N1CCc2ccccc2C1 (centres unmarked) | 3.54 |
| CCOP(=O)(c1ccccc1)c1nc(-c2ccccc2C)oc1N1CCCCC1 (centres unmarked) | 8.78 |
